Source: PubChem BioAssay AID686970 (National Center for Advancing Translational Sciences (NCATS), 2013)
Hit rate of the full screen: of about 360,000 compounds, about 6,000 (1.7%) were called active. The inconclusive results got no clear call from the source; some entries with a clear call stand among them for comparison. Calls follow the shape of the dose curve; as a rule, active = well fitted cell-killing curve with a large enough effect; inconclusive = small, poorly fitted or top-dose-only effect, or effect the other way; inactive = flat fitted curve, though single readings scatter. Potencies of inconclusive entries are left out as doubtful fits.

Test: qHTS for induction of synthetic lethality in tumor cells producing 2HG: qHTS for the HT-1080-NT fibrosarcoma cell line;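 also: NT is the 2HG producing partner of a matched IDH1 knockdown line; nearly all actives have a fitted effect of over 55% in size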;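 as to activity, negative = less viability: 0% = DMSO-treated cells and -100% = media-only wells without cells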
Conditions: HT-1080-NT fibrosarcoma viability, CellTiter-Glo ATP luminescence, 48 h; activity, negative = less viability: at 46.1 µM (top of the series) unless noted
In short: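 Toxicity toward the 2HG-producing NT line was scored as %Activity, normalised to DMSO and no-cell wells, from CellTiter-Glo luminescence after 48 hours' treatment.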
Potency is read from the fitted curve at half-maximal effect; tags tell the direction and shape of the fitted curve.

SMILES | Potency | activity, negative = less viability
COCCN(C(=O)CSc1nc2ccccc2c(=O)n1C(C)COC)c1c(N)n(Cc2ccccc2)c(=O)[nH]c1=O (stereo unspecified) | inactive | –
C=CCOc1c(Br)cc(/C=N/O)cc1OCC | inconclusive [cytotoxic, single point] | –
Cc1ccnc(NC(=S)N2CCN(c3cccc(C(F)(F)F)c3)CC2)c1 | inconclusive [cytotoxic, partial curve] | –
CC(C)c1cc(Br)ccc1OCCCN1C(=O)NC(C)(C)C1=O | inactive | –
Clc1cccc(Cl)c1CO/N=C/c1c(-c2ccccc2)nc2n1CCS2 | – | inconclusive: -32.1% [cytotoxic]
COc1cccc(NC(=O)Nc2nc(SC(C)(C)C)ns2)c1 | inconclusive [cytotoxic, single point] | –
COc1ccccc1N(C)c1cc2c(c3c1ccn3C)C1CCC2C1 (stereo unspecified) | inconclusive [cytotoxic, single point] | –
Cc1ccc(Cl)cc1NC(=O)CCS(=O)(=O)c1cccc2nonc12 | inactive | –
O=C(Cc1ccccc1)Nc1ccc(C(=O)NCC2COc3ccccc3O2)cc1 (stereo unspecified) | inconclusive [cytotoxic, single point] | –
Cc1ccc(-n2cccc2C(=S)N=P(N(C)C)(N(C)C)N(C)C)cc1 | inconclusive [cytotoxic, single point] | –
Cc1cc(C)n(-c2ccc(C(=O)Nc3ccc(C)c(S(=O)(=O)N4CCOCC4)c3)cc2)n1 | inconclusive [cytotoxic, partial curve] | –
Cc1ncsc1C(=O)Nc1nc2c(s1)CC(C)CC2 (stereo unspecified) | inconclusive [cytotoxic, single point] | –
Cc1ccc(-c2csc3nc[nH]c(=S)c23)cc1C | inconclusive [cytotoxic, single point] | –
CCC(C)c1ccccc1NC(=O)c1cc2cccc([N+](=O)[O-])c2[nH]1 (stereo unspecified) | inconclusive [cytotoxic, single point] | –
O=C(N/N=C/c1ccc2c(c1)OCO2)c1ccc(NC(=O)c2ccccc2Cl)cc1 | – | inconclusive: -32.6% [cytotoxic]
C=CCn1c(COc2ccccc2F)nnc1SCC(=O)c1c[nH]c2ccccc12 | inactive | –
Cc1ccc(-n2ncc3c(=O)n(CC(=O)NCc4ccco4)cnc32)cc1C | inconclusive [cytotoxic, single point] | –
COc1ccc(C)cc1NC(=O)CSc1nnc(COc2ccc(Cl)cc2)n1Cc1ccco1 | inconclusive [cytotoxic, single point] | –
CCn1cc(C(c2ccccc2)C(C(C)=O)[N+](=O)[O-])c2ccccc21 (stereo unspecified) | inconclusive [cytotoxic, single point] | –
O=C(NC(=S)Nc1ccc2c(c1)OCCO2)c1ccccc1 | inconclusive [cytotoxic, single point] | –
CC(C)N(Cc1cc2ccccc2[nH]c1=O)C(=O)c1cccc([N+](=O)[O-])c1 | inconclusive [rising, single point] | –
CCCCC[C@H](O)/C=C/[C@H]1CCC(=O)[C@@H]1CCCCCCC(=O)N1CCCCC1CO (stereo partly specified) | active: 16.4 µM | –
CC1CCCCC1NC(=S)Nc1ccc(SC(F)F)cc1 (stereo unspecified) | inconclusive [cytotoxic, single point] | –
Cc1ccc(C2=NOC(C)(c3nnc(-c4ccccc4)o3)C2)cc1 (stereo unspecified) | inactive | –

SMILES | Potency | activity, negative = less viability
Cc1c(Nc2ccc3nonc3c2[N+](=O)[O-])c(=O)n(-c2ccccc2)n1C | inactive | –
Clc1ccc2nc(COc3ccccc3)[nH]c2c1 | active: 13 µM | –
COC(=O)c1cc(=O)n(CCc2ccccc2)c(=Nc2ccc(F)cc2)s1 | inconclusive [cytotoxic, single point] | –
Cc1cccc(OCC(=O)NCC(=O)N/N=C/c2cc(Br)cc(Br)c2O)c1 | inconclusive [cytotoxic, partial curve] | –
Cc1[nH]c2ccccc2c1CC#N | inactive | –
O=C(Nc1ccc(Cl)c(Cl)c1)C1CCCCC1 | inactive | –
Cc1ccc(CNC(=O)CS(=O)(=O)Cc2nc(-c3ccc(C)cc3)oc2C)cc1 | inactive | –
COC(=O)c1ccc(N2C(c3ccsc3)=Cc3cc4c(cc3C2CC(=O)c2ccco2)OCO4)cc1 (stereo unspecified) | inconclusive [cytotoxic, partial curve, poor fit] | –
COc1ccc(-c2oc3ncn(Cc4ccco4)c(=N)c3c2-c2ccc(OC)cc2)cc1 | inconclusive [cytotoxic, single point] | –
C=CCOc1ccc2c(c1)CCC1C2CCC2(C)C(O)C(O)CC12 (stereo unspecified) | inconclusive [cytotoxic, single point] | –
O=C(NCCCN1CCC(Cc2ccccc2)CC1)c1ccc(CS(=O)c2ccccc2Cl)o1 (stereo unspecified) | – | inconclusive: -35.1% [cytotoxic]
Oc1ccc(C=NNC(=S)Nc2cccnc2)nc1 | inconclusive [cytotoxic, partial curve] | –
COc1ccc(CN(C)CC2CCCN(CCc3ccccc3C)C2)cc1O (stereo unspecified) | inconclusive [cytotoxic, partial curve] | –
Cc1ccc(S(=O)(=O)NC(=O)NC2=NC(C)(C)N(c3ccc(Cl)c(Cl)c3)C(N)=N2)cc1 | active: 3.26 µM | –
O=C(c1cc2nc(-c3ccco3)cc(C(F)(F)F)n2n1)N1CCc2ccccc2C1 | inactive | –
O=C1c2ccccc2NC(c2ccc(O)cc2)N1Cc1ccco1 (stereo unspecified) | inactive | –
COc1cc(OC)cc(C(=O)NC(C(=O)N2CCc3ccccc3C2)C(C)C)c1 (stereo unspecified) | inconclusive [cytotoxic, partial curve, poor fit] | –
Cc1oc(-c2ccc(-c3ccccc3)cc2)nc1CN(CCO)C(C)C | inconclusive [cytotoxic, partial curve] | –
Cc1nn2c(N3CCN(C)CC3)cc(C(C)(C)C)nc2c1-c1ccccc1 | active: 20.6 µM | –
COC(=O)c1sc(NC(=O)C2c3ccccc3Oc3ccccc32)c(C(=O)OC)c1C | inactive | –
O=C(/C=C/c1ccccc1)NCc1cccnc1 | inconclusive [rising, single point] | –
O=C1CCCC(O)=C1C(C#Cc1ccccc1)C1=C(O)CCCC1=O | inconclusive [cytotoxic, single point] | –
Cc1onc(-c2ccccc2)c1CNS(=O)(=O)c1cccc(Br)c1 | inactive | –
CC(C)CC1Nc2ncnc(N3CCN(c4ccccn4)CC3)c2N(Cc2ccc(Br)cc2)C1=O (stereo unspecified) | inactive | –

SMILES | Potency | activity, negative = less viability
CCCCOc1ncnc2c1[nH]c1ccc(F)cc12 | inconclusive [cytotoxic, full curve] | –
CCCCCC/C(=N/O)c1ccccn1 | inconclusive [cytotoxic, single point] | –
S=C(Nc1ccccc1)N1CCC(Cc2ccccc2)CC1 | inconclusive [cytotoxic, single point] | –
COc1ccc2c(c1)CCc1cn3ncc(C#N)c3nc1-2 | inconclusive [rising, single point] | –
COc1ccc(/C=N/NC(=O)c2ccn[nH]2)cc1COc1ccc(Cl)cc1 | inconclusive [cytotoxic, single point] | –
Cc1oc(-c2ccc(Cl)cc2)nc1CN1CCC(C(=O)N2CCN(Cc3ccccc3)CC2)CC1 | inconclusive [cytotoxic, partial curve] | –
O=c1c(-c2nc3ccccc3s2)cccn1Cc1ccccc1 | inactive | –
Cc1nc(SCC(=O)Nc2ccccc2C(F)(F)F)c2c(=O)n(C)c(=O)n(C)c2n1 | – | inconclusive: -4.12% [cytotoxic]
COc1cccc(C2=NOC(C(=O)NCc3ccco3)C2)c1 (stereo unspecified) | inconclusive [cytotoxic, single point] | –
CCCc1ccc(-c2c(C)sc(N)c2C#N)cc1 | inconclusive [cytotoxic, single point] | –
Oc1ccc(Nc2nc(-c3ccc(O)cc3)cs2)cc1 | inconclusive [cytotoxic, single point] | –
COc1cc(NC(C)=O)ccc1-c1cc2ccccc2oc1=O | inactive | –
NC(=O)N/N=C/c1cn(-c2ccccc2)nc1-c1cccs1 | active: 23.1 µM | –
COc1cc(SC)ccc1C(=O)Nc1nc(C)cs1 | inconclusive [cytotoxic, single point] | –
Cc1nc(NCCc2ccc(Cl)cc2)c2nnn(Cc3ccccc3)c2n1 | inactive | –
CCN(CC)C(=O)CSc1nc2c(c(-c3cccnc3)c1C#N)CCCC2 | inactive | –
Cn1c(-c2ccc(C(=O)c3ccccc3)s2)nc2ccccc21 | inconclusive [cytotoxic, single point] | –
NNC(=O)c1cc2c(s1)CCCCCC2 | inconclusive [cytotoxic, single point] | –
CCCCCCCCN1C(=O)[C@H](CC(=O)NCCC(C)C)C[C@@]2(C(=O)OCC)CCCC=C12 | inconclusive [cytotoxic, partial curve] | –
Cc1cc(C)cc(CN2CCC(Oc3ccc(C(=O)N4CCCC4)cc3)CC2)c1 | inconclusive [cytotoxic, partial curve] | –
NC(=O)c1oc2ccccc2c1NC(=O)c1ccc(F)cc1 | inactive | –
COc1cc(-c2nnc3n2N=C(c2ccccc2)CS3)cc(OC)c1OC | active: 2.06 µM | –
CN1C2=CC=CC=CC2=[N+](C)C12C([N+](=O)[O-])=CC(=[N+]([O-])[O-])C=C2[N+](=O)[O-] (stereo unspecified) | inconclusive [cytotoxic, partial curve, poor fit] | –
